Out of some 300,000 compounds screened, about 22,000 (7.3%) were called active. Inconclusive means that the source gave no clear call. Such entries were picked first, then a sample of the others. Cut-off read from the data, not from the text of the source: active = activity score below about -60%; inconclusive = mostly about -28% to -61%; inactive = positive scores.
test: Activators via SNCA 5'UTR binding, MLPCN (AID 1814); settings: alpha-synuclein 5'UTR reporter, activators screen; active compounds read low; tested at 7.5 µM

Activity score, inactive:
CCCCCOc1ccc(Br)cc1/C(C)=N/NC1=NCCN1 88.3%
O=C(Nc1nnc(C2CC2)o1)c1ccc(S(=O)(=O)N2CCCc3ccccc32)cc1 63.1%
Cc1cccc(-n2c(SCC(=O)Nc3ncc(Cl)cc3Cl)nc3ccccc32)c1 58.4%
CC(/C=N/NC(=O)c1cc(-c2ccncc2)nc2ccccc12)=C\c1ccco1 86.1%
NC(=O)c1sc2nc3c(c(-c4ccccc4)c2c1N)CCC3 56.2%
COc1ccc(C(=O)N[C@H](C(=O)Nc2nc3ccccc3[nH]2)C(C)C)cc1 106%
CN1Cc2cc(C(=O)c3cc(Cl)cc(CSc4ncccn4)c3O)cnc2NC1=O 78.7%
Cc1ccc(C)c(NC(=O)/C(C#N)=C/c2cn(CC(=O)NCc3ccco3)c3ccccc23)c1 58.2%
Cc1cccc(NC(=O)CSc2nc(C)c(CC(=O)c3ccc(Br)cc3)c(C)c2C#N)c1C 49.1%
C[n+]1c2n(c3ccccc31)N=C(c1cc(C(C)(C)C)c(O)c(C(C)(C)C)c1)CS2 68.5%
CCOC(=O)c1cccc(NC(=O)/C=C/c2ccc3c(c2)OCO3)c1 106%
Cn1c(=O)oc2cc(S(=O)(=O)N3CCCC(C(=O)NC4CCCc5ccccc54)C3)ccc21 (stereo not given) 63.1%
COc1ccc2[nH]c3c(C)c4ccncc4c(C)c3c2c1 109%
Cc1ccc(-c2csc3nc4c5ccccc5c(NCCCN(C)C)nn4c(=O)c23)cc1 116%
COc1ccc(CCN2CCC(Nc3nc4ccccc4n3Cc3ccc(F)cc3)CC2)cc1 103%
O=C(c1cc([N+](=O)[O-])ccc1N1CCCCC1)N1CCc2ccccc21 81.2%
O=C(Nc1ccc2oc(=O)ccc2c1)c1ccc(-c2cccc([N+](=O)[O-])c2)o1 91.5%
Oc1ccc(CNc2ccc(F)cc2)c2cccnc12 75.6%
Cc1nc2cc(-c3ccc(Cl)cc3)nn2c(C)c1CCC(=O)NC(C)c1ccc2c(c1)OCCO2 (stereo not given) 73.8%
Cc1cc(N/N=C/c2c(O)ccc3ccccc23)nc(-c2ccccc2O)n1 72%
CN[C@H]1CCc2cc(OC)c(OC)c(OC)c2-c2ccc(N(C)CC(OC)OC)c(=O)cc21 70.2%
O=C(Nc1ccc(OCc2ccccc2Cl)cc1)c1cccnc1 90.3%
CCCCC(=O)NC(c1ccc(N(CC)CC)cc1)c1ccc2cccnc2c1O (stereo not given) 67.9%
C/C(=N\NC(=O)c1nnn(-c2nonc2N)c1CN(C)c1ccccc1)c1ccccn1 88.4%
O=C(c1nn2c(C(F)(F)F)cc(-c3ccco3)nc2c1Br)N1CCCc2ccccc21 92.9%
COc1ccccc1N1CCN(C(=O)c2ccc3[nH]c(C)c(C)c3c2)CC1 71.7%

Activity score, inconclusive:
CSc1ccc(C(=O)C2CCCN(C(=O)c3cc4cc(F)ccc4[nH]3)C2)cc1 (stereo not given) -60.7%
O=C(N/N=C/c1c(Cl)cccc1Cl)c1ccc(F)cc1 -39.4%
S=c1[nH]c(-c2cccs2)cn1-c1ccccc1 -60.3%
COCCCNC(=O)c1ccc(-c2csc(C)n2)cc1 -52%
COc1ccc(NC(=O)O/N=C2/CCCc3ccc(OC)cc32)cc1 -52.3%
O=C(O)CC/C(=N\NC(=O)c1ccccc1)c1cccs1 -31.1%
COc1ccc(NC(=O)c2cc3c(=O)n(C)c4ccccc4c3n2C)cc1OC -36.1%
COc1ccc(S(=O)(=O)NCC2CCCN(Cc3cccnc3)C2)cc1 (stereo not given) -56.4%
COc1ccccc1C(=O)NNC(=O)c1ccncc1 -48.2%
CN(CC(=O)N1CCCCCC1)S(=O)(=O)c1ccc(F)cc1 -55.3%
CCc1ccc(-c2nc(C)c(CCO)c(=O)[nH]2)cc1 -32.4%
CCOc1ccc(CCNC(=O)Cc2ccc(NC(=O)C3=C(C)OCCS3)cc2)cc1 -56%
CCOC(=O)c1c(N)sc2c1CCC1C(=O)N(C3CCCCC3)C(=O)C21 (stereo not given) -56.2%
COc1ccc(/C=C/C(=O)NC(=S)Nc2ccc(C(=O)O)cc2)cc1 -49%
COc1cccc(C(=O)NC2=NCCS2)c1OC -50.6%
CN(C)c1ccc(-c2nnn(CC(=O)NCc3ccc4c(c3)OCO4)n2)cc1 -53.8%
NS(=O)(=O)c1ccc(N/N=C/c2cn(-c3ccccc3)nc2-c2cccs2)c([N+](=O)[O-])c1 -48.9%
O=C(Oc1ccc2c(c1)CCC2)N1CCOCC1 -58.3%
O=C(OCCCOc1ccc(F)cc1)c1ccc(O)cc1O -60.6%
COc1cccc(NC(=S)Nc2ccc(F)cc2)c1 -42.1%
Cc1cc(Br)ccc1NC(=O)CN(C)Cc1cccs1 -41.1%
c1ccc(-c2nnc(SCc3nc4ccccc4[nH]3)o2)cc1 -47.8%
COc1ccc(-c2cc(CCCC(=O)NCc3ccccn3)no2)cc1 -51.1%
CCc1nnc(NC(=O)c2nc(S(=O)(=O)Cc3ccc(C)cc3)ncc2Cl)s1 -51.7%
FCCCOc1ccc(-c2ccnc(-c3ccccc3)n2)cc1 -49.3%
CC(OC(=O)COc1ccccc1[N+](=O)[O-])C(=O)Nc1ccc(N2CCOCC2)cc1 (stereo not given) -59.9%
COc1c(Cl)cccc1-c1cn2ccc(C)cc2n1 -55.5%
COc1ccc(CCC(=O)OCC(=O)c2ccc(C)cc2)cc1 -38.2%
O=C(Cc1c(O)c2ccccc2[nH]c1=O)N(Cc1ccccc1)Cc1ccccc1 -42.8%
Cc1cc2oc(=O)sc2cc1NS(=O)(=O)c1ccccc1 -25.2%
C=Cn1ccnc1P(=S)(c1ccc2c(c1)c1ccccc1n2CC)c1nccn1C=C -44.3%
O=C(NCC(=O)N1CCN(c2ccccc2F)CC1)c1cccs1 -43.9%
CCn1c(SCC(=O)N/N=C/c2ccc(O)c(OC)c2)nc2ccccc21 -37.1%
CC1=NN(C(N)=S)C(=O)C1N=Nc1c(Cl)cc([N+](=O)[O-])cc1Cl (stereo not given) -55.1%
COc1ccc(C)cc1NC(=O)C(=O)NNC(=O)COc1ccc(Cl)cc1 -54.9%
CC(C)(C)NC(=O)CN(C(=O)CCN1CCCc2ccccc21)C(C)(C)C -42.9%
Cc1ccc(NCc2nnc(SCC(=O)O)n2-c2ccc(C)cc2)cc1 -53.9%
Cc1ccc(C(=O)Nc2nc(=O)n(C)s2)cc1 -52.7%
COc1ccc(/C=C2/SC(=O)N(CCNC(=O)C3COc4ccccc4O3)C2=O)cc1 (stereo not given) -61.2%
CC(C)CN(CCNC(=O)CN1C(=O)CSc2ccc(S(=O)(=O)N3CCOCC3)cc21)CC(C)C -31.9%
CCC1=[N+](CC(=O)c2ccc(Br)cc2)CCn2c(C)ccc21 -58.8%
Cn1c(=O)c(Oc2cc(Cl)cc(Cl)c2)nc2ccccc21 -40.9%
CC(C)c1nnc(N2C(=O)c3oc4ccccc4c(=O)c3C2c2ccco2)s1 (stereo not given) -47.8%
O=c1cc(N2CCCCCC2)[nH]c(=O)n1-c1ccc(Cl)cc1 -56.2%
Cn1c2ccccc2n2c(=O)c(=O)n(CC(=O)c3ccc(Cl)cc3)nc12 -45.3%
CC(=O)Nc1ccc(NS(=O)(=O)c2ccc3c(c2)NC(=O)CC(=O)N3)cc1 -31.4%
Cc1cccc(-n2ccnc2SCC(=O)Nc2ccc3c(c2)OCCO3)c1 -55.7%
CCOc1ncccc1C(=O)Nc1ccc2c(c1)OCO2 -37.4%
Fc1cccc(C2NN=C(c3ccccc3)S2)c1 (stereo not given) -50%

Activity score, active:
COc1cccc2cc(-c3cn4cccc(C)c4n3)c(=O)oc12 -154%
COc1ncccc1-c1nnn(-c2ccccc2Br)n1 -88.4%
N=c1oc2cc(O)ccc2cc1C(=O)Nc1ccc(F)cc1 -148%
C/C(=N\OC(=O)c1ccc(F)cc1)c1sc(-c2ccccc2)nc1C -158%
COc1ccc(NC(=O)CSc2nccn2Cc2ccco2)cc1 -96%
CC(=O)c1cnc2nc(SCc3ccccc3)nn2c1C -157%
CCOC(=O)c1c(CSC(=N)N)n(-c2ccccc2)c2cc(Br)c(OC(C)=O)cc12 -71%
O=C(N/N=C/c1ccccc1[N+](=O)[O-])c1cccs1 -125%
COc1ccc(-n2cc(-c3ccc(Cl)cc3)[nH]c2=S)cc1 -91.1%
O=[N+]([O-])c1ccc(/C=N/N2CCCCC2)cc1 -128%
O=Cc1c(OCc2ccccc2)ccc2ccccc12 -131%
O=C(CSc1nnc(-c2ccccn2)o1)Nc1ccccc1C(F)(F)F -104%
COc1ccc(-c2nn(-c3ccccc3)cc2N)cc1 -167%
CC(=O)OCC(=O)Nc1ccc(N=Nc2ccccc2)cc1 -143%
COc1ccc2cc3cc(C(=O)NCCCN4CCc5ccccc5C4)sc3nc2c1 -198%

Reference: PubChem BioAssay AID1814 (Broad Institute, 2009)
